Measured values reported in US20250026806A1 (HANGZHOU SUMGEN BIOTECH, published 2025).
Numbering of substitutions follows the chain as printed.

B1: SS002 (fusion protein of wild-type SIRPα truncated domain and human IgG1-Fc) (Fc fusion)
chain: ELQVIQPDKSVLVAAGETATLRCTATSLIPVGPIQWFRGAGPGRELIYNQKEGHFPRVTTVSDLTKRNNMDFSIRIGNITPADAGTYYCVKFRKGSPDDVEFKSGAGTELSVRAKPS[letters of human IgG1 Fc omitted]
notes: The order (SIRPα N-terminal of Fc) comes from the general description
B2: SS002m5N (SIRPα variant m5N - IgG1-Fc fusion protein) (Fc fusion)
chain: B1 chain with I29V, E45N, Q50S, K51R, E52H, N78A
notes: No linker is stated
B3: SS002m12N (SIRPα variant m12N - IgG1-Fc fusion protein) (Fc fusion)
chain: B1 chain with L12V, I29F, E45I, Q50R, K51R, E52Q, N78A, V100I
notes: No linker is stated
B4: SS002m82N (SIRPα variant m82N - IgG1-Fc fusion protein) (Fc fusion)
chain: B1 chain with I29F, D63H, L64S, G77H, N78A, V100S
notes: No linker is stated
B5: SS002m84N (SIRPα variant m84N - IgG1-Fc fusion protein) (Fc fusion)
chain: B1 chain with I29F, D63H, L64S, K66R, G77H, N78A, V100S
notes: No linker is stated
B6: SS002m91N (SIRPα variant m91N - IgG1-Fc fusion protein) (Fc fusion)
chain: B1 chain with I29L, E45Q, E52D, V61A, R75N, N78A, V100I
notes: No linker is stated

Key:
[1] = target: T1, CD47 on the surface of Raji cells and A549 cells (UniProt Q08722); test: flow cytometry on Raji cells, PE anti-human IgG Fc secondary antibody
T1 construct: whole, on cells; Raji and A549 are human cell lines; also called CD47 molecules on the surface of tumor cells

[2] = target: T2, His-CD47 (CD47 Protein, Human, Recombinant (ECD, His Tag), SinoBiological) (human, UniProt Q08722 in part, limits assumed); test: SPR Biacore T200, fusion protein captured by anti-human Fc, His-CD47 as analyte, 1:1 model
T2 construct: extracellular domain; Bought reagent; also called target antigen His-CD47; not shown: His tag

[3] = target: T1, CD47 on the surface of Raji cells and …; test: flow cytometry on A549 cells, PE anti-human IgG Fc secondary antibody

Row | Binder | EC50 (read off the curve) [1] | Kd [2] | koff [2] | kon [2] | EC50 (read off the curve) [3]
1 | B1 | ~0.4 µg/mL | 19.5 nM | 0.00639 s⁻¹ | 327000 M⁻¹ s⁻¹ | –
2 | B2 | – | 19.9 nM | 0.00646 s⁻¹ | 324000 M⁻¹ s⁻¹ | –
3 | B3 | ~0.05 µg/mL | 13.4 nM | 0.00445 s⁻¹ | 333000 M⁻¹ s⁻¹ | ~0.2 µg/mL
4 | B4 | – | 10.8 nM | 0.00278 s⁻¹ | 257000 M⁻¹ s⁻¹ | –
5 | B5 | – | 9.18 nM | 0.00209 s⁻¹ | 227000 M⁻¹ s⁻¹ | –
6 | B6 | – | 4.23 nM | 0.000829 s⁻¹ | 196000 M⁻¹ s⁻¹ | –
